In patent US20250313546A1, “NUCLEIC ACID BINDERS” (UNIVERSITY OF STRATHCLYDE, priority 2022, published 2025):

What was measured:
Test in all cases: Resazurin-based (Alamar blue) drug sensitivity assay
[1] = tested on: T. b. brucei Lister S427 (a drug-sensitive wild type); conditions: for T.b. brucei Selectivity Indices (SI, IC50 (μM)/IC50 (μM)) Group / T.b. brucei Selectivity Index (SI, IC50 (μM)/IC50 (μM)), numeric value: cytotoxicity against HEK293 cells vs T.b. brucei; for IC50: Trypanosoma brucei, read-out: IC50 T.b. brucei
[2] = tested on: T. b. brucei B48 (a strain resistant to diamidines and melaminophenyl arsenicals); conditions: Trypanosoma brucei, read-out: IC50 T.b. brucei B48
Procedure: A detailed description of the procedure for evaluating activity against trypanosomes, using an Alamar Blue (resazurin) assay, is described below.
The bloodstream form (BSF) T. b. brucei s427 (see De Koning, H. P. et al., Mol. Biochem. Parasitol. 2000, 106, 181-185), T. evansi AntTat 3/3 (see Dean, S. et al., Proc. Natl. Acad. Sci. USA, 2013, 110, 14741-14746), and T. equiperdum (see Stewart, M. L. et al., Eukaryot. Cell, 2010, 9, 336-343) were cultured in HMI-9 medium (Life Technologies, Paisley, United Kingdom) supplemented with 10% heat inactivated Foetal Bovine Serum (FBS (PAA Laboratories Linz, Austria)), 14 μL/L β-mercaptoethanol (BDH, Dorset, UK), and 3.0 g/L NaHCO3 (Sigma-Aldrich) and adjusted to pH 7.4. These cell lines were maintained at 37° C. in a humidified, 5% CO2 environment.
A resazurin-based (Alamar blue) drug sensitivity assay was used to assess and compare the activity of standard trypanocides in the different cell lines investigated (see Gould, M. K. et al., Anal. Biochem., 2008, 382, 87-93). Briefly, 23 doubling dilutions of the test compound of the invention, starting at 100 μM, and a compound-free control were prepared in 100 μL medium in a 96-well white plate (Greiner Bio-one, Frickenhausen, Germany). The cells were adjusted to 2×10^4 cells/mL for T. b. brucei and T. equiperdum; 4×10^4 cells/mL for T. evansi; and 5×10^5 cells/mL for T. congolense in the appropriate medium. 100 μL of the adjusted cells was then added to the wells containing drug dilutions and incubated for 48 h under respective culture condition. Thereafter, 20 μL of 125 mg/mL resazurin sodium dye was added, and the plate was incubated for a further 24 h. The resorufin fluorescence in each well of the plate was determined and used to calculate the Half maximal effective concentration (EC50) of the drug, as described in Carruthers, L. V. et al., Mol. Microbiol., 2021, 116, 564-588.

[3] = tested on: T congolense 6C3 (a diminazene resistant strain); conditions: Trypanosoma congolense, read-out: IC50 T. congo C63
[4] = tested on: T. congolense IL3000 (a drug sensitive wild type); conditions: Trypanosoma congolense, read-out: IC50 T. congo

Row | Compound | T.b. brucei Selectivity Indices (SI, IC50 (μM)/IC50 (μM)) Group ([1]; Amides) | IC50 [1] [µM] | IC50 [2] [µM] | IC50 [3] [µM] | IC50 [4] [µM] | T.b. brucei Selectivity Index (SI, IC50 (μM)/IC50 (μM)), numeric value [1] | T.b. brucei Selectivity Indices (SI, IC50 (μM)/IC50 (μM)) Group ([1]; Alkyl Amidines and NH Pyrroles)
1 | Cn1cc(NC(=O)c2cc(NC(=O)c3ccc(/C=C/c4cnc5ccccc5c4)cc3)cn2C)cc1C(N)=O [IVa1, (E)-N-(5-carbamoyl-1-methyl-1H-pyrrol-3-yl)-1-methyl-4-(4-(2-(quinolin-3-yl)vinyl)benzamido)-1H-pyrrole-2-carboxamide] | B (Group B: 0.7 < SI <= 1.5) | 0.25 to 1 | 0.25 to 1 | > 1 | > 1 |  | 
2 | Cn1cc(NC(=O)c2ccc(/C=C/c3cnc4ccccc4c3)cc2)cc1C(=O)Nc1c[nH]c(C(=O)NCCN2CCOCC2)c1 [IIIb4, (E)-1-methyl-N-(5-((2-morpholinoethyl)carbamoyl)-1H-pyrrol-3-yl)-4-(4-(2-(quinolin-3-yl)vinyl)benzamido)-1H-pyrrole-2-carboxamide] |  | 0.05 to 0.25 | 0.05 to 0.25 | > 1 | > 1 |  | 
3 | Cn1cc(NC(=O)c2cc(NC(=O)c3ccc(/C=C/c4cnc5ccccc5c4)cc3)c[nH]2)cc1C(=O)NCCN1CCOCC1 [IIIb8, (E)-1-methyl-N-(2-morpholinoethyl)-4-(4-(4-(2-(quinolin-3-yl)vinyl)benzamido)-1H-pyrrole-2-carboxamido)-1H-pyrrole-2-carboxamide] |  | < 0.05 | < 0.05 | 0.25 to 1 | 0.25 to 1 |  | 
4 | O=C(Nc1c[nH]c(C(=O)Nc2c[nH]c(C(=O)NCCN3CCOCC3)c2)c1)c1ccc(/C=C/c2cnc3ccccc3c2)cc1 [IIIb5, (E)-N-(2-morpholinoethyl)-4-(4-(4-(2-(quinolin-3-yl)vinyl)benzamido)-1H-pyrrole-2-carboxamido)-1H-pyrrole-2-carboxamide] |  | 0.05 to 0.25 | 0.05 to 0.25 | > 1 | > 1 |  | 
5 | CNC(=O)c1cc(NC(=O)c2cc(NC(=O)c3ccc(/C=C/c4cnc5ccccc5c4)cc3)cn2C)cn1C [IVa2, (E)-N,1-dimethyl-4-(1-methyl-4-(4-(2-(quinolin-3-yl)vinyl)benzamido)-1H-pyrrole-2-carboxamido)-1H-pyrrole-2-carboxamide] | D (Group D: SI > 3) | 0.25 to 1 | 0.25 to 1 | > 1 | > 1 | 5 | 
6 | Cn1cc(NC(=O)c2ccc(/C=C/c3ccc4nonc4c3)cc2)cc1C(=O)Nc1c[nH]c(C(=O)NCCN2CCOCC2)c1 [IIIb1, (E)-4-(4-(2-(benzo[c][1,2,5]oxadiazol-5-yl)vinyl)benzamido)-1-methyl-N-(5-((2-morpholinoethyl)carbamoyl)-1H-pyrrol-3-yl)-1H-pyrrole-2-carboxamide] |  | 0.25 to 1 | 0.05 to 0.25 | > 1 | > 1 |  | 
7 | Cn1cc(NC(=O)c2cc(NC(=O)c3ccc(/C=C/c4ccc5nonc5c4)cc3)c[nH]2)cc1C(=O)NCCN1CCOCC1 [IIIb9, (E)-4-(4-(4-(2-(benzo[c][1,2,5]oxadiazol-5-yl)vinyl)benzamido)-1H-pyrrole-2-carboxamido)-1-methyl-N-(2-morpholinoethyl)-1H-pyrrole-2-carboxamide] |  | < 0.05 | 0.05 to 0.25 | > 1 | > 1 |  | 
8 | O=C(Nc1c[nH]c(C(=O)Nc2c[nH]c(C(=O)NCCN3CCOCC3)c2)c1)c1ccc(/C=C/c2ccc3nonc3c2)cc1 [IIIb6, (E)-4-(4-(2-(benzo[c][1,2,5]oxadiazol-5-yl)vinyl)benzamido)-N-(5-((2-morpholinoethyl)carbamoyl)-1H-pyrrol-3-yl)-1H-pyrrole-2-carboxamide] |  | 0.05 to 0.25 | > 1 | > 1 | > 1 | 366 | D (Group D: SI > 300)
